# From the supplement of paper PMC8728848
# The list shows a part of the results.
# What was measured:
# Assay in all cases: glycan array binding signal (z-score within array); higher = stronger binding
# Conditions in all cases: glycan notation: IUPAC condensed, linker removed
# GlcNAc(b1-3)Man = target: GlcNAc(b1-3)Man
# Outline: (§1)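 Glycan array data came from 3228 arrays in the Consortium for Functional Glycomics database, and only arrays with an available protein sequence were kept. Glycan names were put into IUPAC-condensed notation, and columns mapping to the same glycan were averaged. The binding signal is a within-array Z-score, averaged across arrays of one protein sequence run at different concentrations or buffers and across linkers. A negative Z-score can be read as non-binding.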
# [1] = target: GlcNAc(b1-3)[GlcNAc(b1-4)][GlcNAc(b1-6)]GlcNAc
# Outline: as §1
# [2] = target: GlcNAc(b1-3)[GlcNAc(b1-6)]Gal(b1-4)GlcNAc
# Outline: as §1
# [3] = target: GlcNAc(b1-3)[GlcNAc(b1-6)]GalNAc
# Outline: as §1
# [4] = target: GlcNAc(b1-4)Gal(b1-4)GlcNAc
# Outline: as §1
# GlcNAc(b1-4)GlcNAc = target: GlcNAc(b1-4)GlcNAc
# Outline: as §1
# [5] = target: GlcNAc(b1-4)GlcNAc(b1-4)GlcNAc
# Outline: as §1
# [6] = target: GlcNAc(b1-4)GlcNAc(b1-4)GlcNAc(b1-4)GlcNAc(b1-4)GlcNAc
# Outline: as §1
# [7] = target: GlcNAc(b1-4)GlcNAc(b1-4)GlcNAc(b1-4)GlcNAc(b1-4)GlcNAc(b1-4)GlcNAc
# Outline: as §1
# [8] = target: GlcNAc(b1-4)[GlcNAc(b1-6)]GalNAc
# Outline: as §1
# [9] = target: GlcNAc(b1-6)Gal(b1-4)GlcNAc
# Outline: as §1
# GlcNAc(b1-6)GalNAc = target: GlcNAc(b1-6)GalNAc
# Outline: as §1
# [10] = target: GlcNAc6S(b1-3)Gal(b1-4)GlcNAc
# Outline: as §1
# Kdn(a2-3)Gal(b1-3)GalNAc = target: Kdn(a2-3)Gal(b1-3)GalNAc
# Outline: as §1
# Kdn(a2-3)Gal(b1-3)GlcNAc = target: Kdn(a2-3)Gal(b1-3)GlcNAc
# Outline: as §1
# Kdn(a2-3)Gal(b1-4)Glc = target: Kdn(a2-3)Gal(b1-4)Glc
# Outline: as §1
# Kdn(a2-3)Gal(b1-4)GlcNAc = target: Kdn(a2-3)Gal(b1-4)GlcNAc
# Outline: as §1
# [11] = target: Kdn(a2-3)Gal(b1-4)[Fuc(a1-3)]GlcNAc
# Outline: as §1
# Kdn(a2-6)Gal(b1-4)GlcNAc = target: Kdn(a2-6)Gal(b1-4)GlcNAc
# Outline: as §1
# [12] = target: Man(a1-2)Man(a1-2)Man(a1-3)Man
# Outline: as §1
# [13] = target: Man(a1-2)Man(a1-2)Man(a1-6)[Man(a1-3)]Man
# Outline: as §1
# Man(a1-2)Man(a1-3)Man = target: Man(a1-2)Man(a1-3)Man
# Outline: as §1
# [14] = target: Man(a1-2)Man(a1-3)[Man(a1-2)Man(a1-6)]Man
# Outline: as §1
# [15] = target: Man(a1-2)Man(a1-3)[Man(a1-2)Man(a1-6)]Man(a1-6)[Man(a1-2)Man(a1-2)Man(a1-3)]Man
# Outline: as §1
# [16] = target: Man(a1-2)Man(a1-3)[Man(a1-2)Man(a1-6)]Man(a1-6)[Man(a1-2)Man(a1-2)Man(a1-3)]Man(b1-4)GlcNAc(b1-4)GlcNAc
# Outline: as §1
# [17] = target: Man(a1-2)Man(a1-3)[Man(a1-6)]Man(a1-6)[Man(a1-2)Man(a1-3)]Man(b1-4)GlcNAc(b1-4)GlcNAc
# Outline: as §1
# [18] = target: Man(a1-2)Man(a1-6)[Man(a1-3)]Man(a1-6)[Man(a1-2)Man(a1-2)Man(a1-3)]Man
# Outline: as §1
# [19] = target: Man(a1-2)Man(a1-6)[Man(a1-3)]Man(a1-6)[Man(a1-2)Man(a1-2)Man(a1-3)]Man(b1-4)GlcNAc(b1-4)GlcNAc
# Outline: as §1
# Man(a1-3)[Man(a1-6)]Man = target: Man(a1-3)[Man(a1-6)]Man
# Outline: as §1
# [20] = target: Man(a1-3)[Man(a1-6)]Man(a1-6)[Man(a1-2)Man(a1-3)]Man(b1-4)GlcNAc(b1-4)GlcNAc
# Outline: as §1
# [21] = target: Man(a1-3)[Man(a1-6)]Man(a1-6)[Man(a1-3)]Man
# Outline: as §1
# [22] = target: Man(a1-3)[Man(a1-6)]Man(a1-6)[Man(a1-3)]Man(b1-4)GlcNAc(b1-4)GlcNAc
# Outline: as §1
# [23] = target: Man(a1-3)[Man(a1-6)]Man(b1-4)GlcNAc(b1-4)GlcNAc
# Outline: as §1
# [24] = target: Man(a1-3)[Man(a1-6)]Man(b1-4)GlcNAc(b1-4)[Fuc(a1-6)]GlcNAc
# Outline: as §1
# Man(a1-6)Man = target: Man(a1-6)Man
# Outline: as §1
# Man(b1-4)GlcNAc = target: Man(b1-4)GlcNAc
# Outline: as §1
# MurNAc(b1-4)GlcNAc = target: MurNAc(b1-4)GlcNAc
# Outline: as §1
# Neu5Ac(a2-3)Gal = target: Neu5Ac(a2-3)Gal
# Outline: as §1
binder,measurement,setting,value
Cohesin-hDC-ASGPR (Homo sapiens) (protein) LDDLDAVRIKVDTVNAKPGDTVRIPVRFSGIPSKGIANCDFVYSYDPNVLEIIEIEPGDIIVDPNPDKSFDTAVYPDRKIIVFLFAEDSGTGAYAITKDGVFATIVAKVKEGAPNGLSVIKFVEVGGFANNDLVEQKTQFFDGGANVGDTTEPATPTTPVTTPTTTDDLDAASQNSKFQRDLVTLRTDFSNFTSNTVAEIQALTSQGSSLEETIASLKAEVEGFKQERQAGVSELQEHTTQKAHLGHCPHCPSVCVPVHSEMLLRVQQLVQDLKKLTCQVATLNNNASTEGTCCPVNWVEHQDSCYWFSHSGMSWAEAEKYCQLKNAHLVVINSREEQNFVQKYLGSAYTWMGLSDPEGAWKWVDGTDYATGFQNWKPGQPDDWQGHGLGGGEDCAHFHPDGRWNDDVCQRPYHWVCEAGLGQTSQESHHHHHH,glycan array binding signal (z-score),GlcNAc(b1-3)Man,-0.46
same,glycan array binding signal (z-score),[1],-0.509
same,glycan array binding signal (z-score),[2],-0.516
same,glycan array binding signal (z-score),[3],-0.467
same,glycan array binding signal (z-score),[4],-0.452
same,glycan array binding signal (z-score),GlcNAc(b1-4)GlcNAc,-0.466
same,glycan array binding signal (z-score),[5],-0.506
same,glycan array binding signal (z-score),[6],-0.46
same,glycan array binding signal (z-score),[7],-0.484
same,glycan array binding signal (z-score),[8],-0.467
same,glycan array binding signal (z-score),[9],-0.486
same,glycan array binding signal (z-score),GlcNAc(b1-6)GalNAc,2.75
same,glycan array binding signal (z-score),[10],-0.433
same,glycan array binding signal (z-score),Kdn(a2-3)Gal(b1-3)GalNAc,-0.428
same,glycan array binding signal (z-score),Kdn(a2-3)Gal(b1-3)GlcNAc,-0.515
same,glycan array binding signal (z-score),Kdn(a2-3)Gal(b1-4)Glc,-0.499
same,glycan array binding signal (z-score),Kdn(a2-3)Gal(b1-4)GlcNAc,-0.517
same,glycan array binding signal (z-score),[11],-0.485
same,glycan array binding signal (z-score),Kdn(a2-6)Gal(b1-4)GlcNAc,-0.512
same,glycan array binding signal (z-score),[12],-0.457
same,glycan array binding signal (z-score),[13],-0.495
same,glycan array binding signal (z-score),Man(a1-2)Man(a1-3)Man,-0.472
same,glycan array binding signal (z-score),[14],-0.502
same,glycan array binding signal (z-score),[15],-0.512
same,glycan array binding signal (z-score),[16],-0.402
same,glycan array binding signal (z-score),[17],-0.5
same,glycan array binding signal (z-score),[18],-0.48
same,glycan array binding signal (z-score),[19],-0.463
same,glycan array binding signal (z-score),Man(a1-3)[Man(a1-6)]Man,-0.405
same,glycan array binding signal (z-score),[20],-0.49
same,glycan array binding signal (z-score),[21],-0.43
same,glycan array binding signal (z-score),[22],-0.509
same,glycan array binding signal (z-score),[23],-0.389
same,glycan array binding signal (z-score),[24],-0.505
same,glycan array binding signal (z-score),Man(a1-6)Man,0.057
same,glycan array binding signal (z-score),Man(b1-4)GlcNAc,-0.482
same,glycan array binding signal (z-score),MurNAc(b1-4)GlcNAc,-0.48
same,glycan array binding signal (z-score),Neu5Ac(a2-3)Gal,-0.335
